According to the supplement of paper PMC11417369:
The other results are listed elsewhere or left out.

Tested on: PfHDP1 homeodomain (GST-tagged)
Test: gcPBM binding intensity (ln(normalized median fluorescence intensity)); higher = stronger DNA binding
Method in brief: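 Binding intensity is defined as the maximum Masliner-normalised natural-log median intensity across replicate spots for either probe orientation. It was measured on an Agilent 4 × 180k array of primer-extended double-stranded 36-bp intergenic genomic probes and negative controls, to which GST-tagged P. falciparum DNA-binding domains made in E. coli were applied for 1 h in 1× PBS with 1% milk, 0.2 mg/ml BSA, 0.5% salmon testes DNA and 0.03% Triton X-100. Detection was by Alexa488 anti-GST antibody and scanning at 488 nm.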

Row | Sequence | gcPBM binding intensity (ln)
1 | TTTTCTTACATGAGTGTACACACTTTTTTTCAGAAA [CACACA_site70] | 7.98
2 | TTTATATAATTTTAATGTACATATATATATATAAAT [XGTACX_site4381] | 6.49
3 | ATATATCATAAATAAATGAAAATATTTTCTATGTGT [CACACA_negctrl_site689] | 6.77
4 | TTATTTGAATAATGTTTGCACTTAGAGTATTTTATA | 8.74
5 | TAATAAATAAGATTCACACATATTTAAATGTTATGC [CACACA_site5275] | 6.1
6 | TTCTTCACATACACTTCAAAATTTGATAAAACATTA [CACACA_negctrl_site472] | 7.18
7 | TATCTATAATATTATACACACATATATGCATAATAT [CACACA_site6175] | 7.4
8 | TATATATTTTTTTCAAGTACACATTACAGTTACATA [XGTACX_site2713] | 6.65
9 | ATGTTTTCTCTTTCGGTGCATTGTTTTCTATACTTT [GTGCAC_site9483] | 9.41
10 | ATTCGATGTTTTAAATGTACACAAATTGAAGGAATA [XGTACX_site409] | 6.77
11 | TAAAAATATCTGTATACACACATATATATATATATA [CACACA_site6042] | 9.57
12 | AAAAAAAAAAAAAAAAGTACAAATCTTTATTTATTA [XGTACX_site3305] | 6.25
13 | ATAATATAATATAAAACACACATATGTACCTTCTAA [CACACA_site2761] | 6.42
14 | CAAGTTCAAAATACAAGGAAGAAACAAAACTTGGCG [GTGCAC_negctrl_site600] | 6.94
15 | TATTATAAAACATTATGTACATATTCTGAAAAATAG [XGTACX_site6577] | 6.5
16 | TATTTCTTATTTATTTTTTAAGGAAATTAAAGATTT [CACACA_negctrl_site258] | 5.95
17 | CAAAATAAAAAATTCACACACATATATATATATATA [CACACA_site2088] | 9.29
18 | AAAACAAATGCTTAAAGTACTTATTATTTTTCTTTT [XGTACX_site6324] | 6.9
19 | TTCCTACTATTCAAACGTACAAAATATTTAAATAAT [XGTACX_site700] | 6.5

Row | Sequence | gcPBM binding intensity (ln)
20 | TATGATATCTATAATACACACATATACATAAGATCT [CACACA_site6652] | 6.6
21 | TTAATATAACTTTTTGCACACTTAATTTTTTTTTTT [CACACA_site3364] | 10.2
22 | TTATATAAAACATTAACACACAAAGAAAAAAAATTA [CACACA_site1793] | 6.61
23 | TGGTGATCAAAATATACATGCATATGTTCTGTTATT [TGCATGCA_site614] | 6.39
24 | TATATATTAGAAGATAGTACATATATATTTATTAAT [XGTACX_site1011] | 6.48
25 | GCTCAATGTTTTACATGTACATATATATATATATAT [XGTACX_site8210] | 9.4
26 | TAATATTTCTTATTTTATATTTGTATATGAATGGAT [XGTACX_negctrl_site278] | 6.23
27 | ATATAAATCATTGGTTGTACATATAATATTTTATAA [XGTACX_site925] | 6.28
28 | TATTTTTACCCATAAAGTACACATAAATATAAAATA [XGTACX_site177] | 6.61
29 | TATATATCTATATATTGTACATATGTTTGTATGTGT [XGTACX_site7420] | 6.55
30 | TTTGTGTAAAGAATCAGTACATATAATATATATATA [XGTACX_site1972] | 8.2
31 | GTGCTACATCATATGTGTACATATACCAAACTGTAT [XGTACX_site8233] | 6.89
32 | ATATGTATTGGAGTGTGTACATATATATATATTTAT [XGTACX_site5633] | 6.85
33 | TTAATAATGTTTTATTGTACTTTTTTGTGGGTTTAT [XGTACX_site5670] | 6.66
34 | ATATACATTCAAGGCTGTACACTATATTTTTTTTTT [XGTACX_site6514] | 6.87
35 | TATTTTATATGATAGGTGCATTTTTTTTTTTTTTTT [GTGCAC_site9757] | 9.34
36 | CTTGACCCCCTTTGTTGTACTGACATTTGTGAGCTT [XGTACX_site591] | 6.61
37 | ATTTTTTCAAAATGGAAAACTTATCAGTGAAAAAAA [CACACA_negctrl_site1087] | 6.29
38 | ATTTTTTTATACAATTTTATATATTAAATATTATAA [GTGCAC_negctrl_site86] | 6.48

Row | Sequence | gcPBM binding intensity (ln)
39 | TAAAAATGGGAGGGGTGTACTACACAATAAAATTAT [XGTACX_site5641] | 7.41
40 | TGTATTTTTAACATATGTACGAATAGCACGTGTTAT [XGTACX_site3640] | 6.86
41 | TAATTTAAAAATTCCTGTACTCAGTTTTTTCTATTT [XGTACX_site4961] | 6.15
42 | TAAGTGTATGTATATAAACACACATACATATATATA [CACACA_site8397] | 6.76
43 | AGTATACACGAACACACACACACATATATAAATATA [CACACA_site6913] | 6.93
44 | TAAAGTATTACAACCACACACACACCCATATATTAT [CACACA_site4159] | 6.71
45 | TATAAAATTATTAAACAAGAAAATTTTAGGTAATAC [TGCATGCA_negctrl_site568] | 6.72
46 | TTGATAAAACGTTATGCACACGTACGTGGGTATTTA [CACACA_site8445] | 10.2
47 | TATAATATATTTTGATGTACAAATATATTATATATA [XGTACX_site8633] | 6.31
48 | ATAATATATTTTTGAACACACAATATATATATATAT [CACACA_site4124] | 9.09
49 | ATATAAATATGACACACACACAAAAAAAATAAAGAC [CACACA_site6208] | 7.67
50 | TAATTATAATAAATATTCATATGTTCAAATATATAT [CACACA_negctrl_site151] | 6.33
51 | ATGTGATAGAAGTACACACACATATGTATTTATAAT [CACACA_site5075] | 6.7
52 | AATCAAAATAATTTAACACACAATTTTAATACTGTT [CACACA_site2375] | 6.24
53 | TTTAAGAATTAACGGGGTACAATTCTTAAATATATA [XGTACX_site669] | 6.33
54 | AAATTCCATGAAAAAAGTACTAATTAATACAATATA [XGTACX_site2877] | 6.49
55 | TAGAAGTACATATATGCATGTTAATTTTAAAGGAGG [TGCATGCA_site538] | 6.9
56 | ATTAAAAATATTAGTTGTACTTTATATTTTCATATA [XGTACX_site3614] | 6.02
